From PubChem BioAssay AID1240 (Sanford-Burnham Center for Chemical Genomics, 2008) come the findings set out here.

In all, about 50,000 compounds went through this assay and about 800 (1.6%) showed an effect of 50% or more. Some of the results follow.

In this experiment the target is Bcl-2-like protein 10 (Homo sapiens) (UniProt Q9HD36). Kind of experiment: TR3 peptide-Bcl-B binding displacers, biochemical primary FP assay, phenotype converters (AID 1240).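 Note: 0% = Bcl-B with tracer peptide and DMSO and 100% = tracer peptide lacking Bcl-B.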 The following applies: GST-Bcl-B / FITC-TR3 peptide fluorescence polarization; stronger effect = higher value; compound at 3.75 mg/L. A general note: Polarisation of emitted light reports the rotation of a fluorescent probe.
UniProt Q9HD36, sequence (Q9HD36 whole entry, looked up): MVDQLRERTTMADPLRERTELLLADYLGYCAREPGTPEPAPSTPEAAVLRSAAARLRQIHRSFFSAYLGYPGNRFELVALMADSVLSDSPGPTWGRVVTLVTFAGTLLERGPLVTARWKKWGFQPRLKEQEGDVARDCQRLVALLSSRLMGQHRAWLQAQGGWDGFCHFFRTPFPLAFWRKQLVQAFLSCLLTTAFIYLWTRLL
Take `Cc1occc1C(=O)NNC(=O)c1ccccc1F`: the displacement was -11.5%. In the case of `Cc1cc(C)c2oc(-c3cccc(NC(=S)NC(=O)c4ccco4)c3)nc2c1`, the displacement was found to be 12.1%. Take `O=C(O)CCC(=O)Nc1cccc(-c2nc3cc4ccccc4cc3[nH]2)c1`: the displacement is -8.3%. Take `COc1ccc(C(=O)N2CCN(C(=O)CC(C)C)CC2)cc1OC`: the displacement was -11.1%. Under `CCN(CC)c1ccc(/C=C2\SC(=S)N(Cc3ccco3)C2=O)cc1` stands -82.1%; under `O=C(Nc1ccc(F)cc1)C1CC(=O)N(c2ccc(Cl)cc2)C1` (stereo not drawn), 6.1%; under `C=C(C)Cn1c(SCC(=O)c2ccc(OC)cc2)nnc1-c1ccco1`, 5.7%. Under `COc1ccc(S(=O)(=O)n2cccc2)cc1` stands 2.5%; under `CC(C)COC(=O)c1ccc(NC(=O)c2ccc(Cl)c(Cl)c2)cc1`, 4.3%. Consider `CC(=O)Nc1ccc(NC(=O)CCC(=O)NCCO)cc1`, for which the displacement was -6.2%.

For `COc1ccc(NC(=O)C2COc3ccccc3O2)c(OC)c1` (stereo not drawn), the displacement is -8.1%. Consider `Cc1cc(C(=O)Nc2ccccc2C(=O)O)c(C)o1`, for which the displacement was -2.4%. In the case of `COC(=O)c1cc(NC(=O)c2ccc3c(c2)OCO3)cc(C(=O)OC)c1`, the displacement worked out at 13.8%. For the molecule `COc1cc(-c2csc(N)n2)ccc1O`, the displacement was determined as 15.6%. For the molecule `COc1ccc(OC)c(/C=N/NC(=O)C(=O)Nc2ccc(OC)cc2OC)c1`, the displacement was 2.1%. On to `COc1ccccc1C(=O)NC(NC(=O)c1ccccc1OC)c1cccc([N+](=O)[O-])c1`, for which the displacement amounted to 7.1%. For the molecule `COc1ccc(C2(CNC(=O)c3cc4ccccc4o3)CCOCC2)cc1OC`, the displacement was -6.6%. Under `COc1ccc(C(=O)N/N=C/c2ccc(Sc3nnnn3-c3ccccc3)o2)cc1OC` stands -8.7%; under `COc1ccc(OCC(=O)N2CCN(c3ccccn3)CC2)cc1`, 0.3%.

On to `C/C=C/COC(=O)C1=C(C)NC(=O)NC1c1ccc(Cl)cc1Cl` (stereo not drawn), for which the displacement came to 7.8%. With `CC1=C(C(=O)Nc2cccc(Cl)c2C)C(c2cccs2)NC(=O)N1` (stereo not drawn), the displacement came to 12.6%. Take `Cc1cc(C)c(NC(=O)c2cccs2)c(C)c1NC(=O)c1cccs1`: the displacement is -3.3%.

For the molecule `O=C(O)C1C2C=CC(C3CC23)C1C(=O)NCc1ccccc1` (stereo not drawn), the displacement was -10.4%. With `O=C(CSc1nnnn1-c1ccccc1)Nc1cccc(C(F)(F)F)c1`, the displacement was 9.8%.

Turning to `Cc1ccc(N2C(=O)/C(=C/c3ccc(OCC(=O)O)c(Br)c3)C(=O)NC2=S)cc1`, the displacement is -33.2%. Take `N/C(=C/C(=O)c1cccs1)C(F)(F)C(F)F`: the displacement was -2.8%. In the case of `Oc1cc(N=C/C=C/c2ccc(Cl)cc2)ccc1-c1nc2ccccc2o1`, the displacement came to 5.3%. Take `O=C1/C(=C/c2ccc(-c3ccc(Cl)cc3C(=O)O)o2)Sc2ccccc21`: the displacement was -64.9%. Under `Cc1cc(Cl)ccc1NC(=O)CCC(=O)N/N=C/c1cccnc1` stands 8%; under `COC(=O)COc1ccc(/C=C2\C(=O)NC(=S)N(c3ccc(OC)cc3)C2=O)cc1OC`, -10.2%.

As for `Cc1cccc(NC(=O)CSc2nc3ccc([N+](=O)[O-])cc3s2)c1C`, the displacement was -11.3%. `CC(=O)Nc1ccc(C(=O)Nc2ccc(C(C)C)cc2)cc1`: the displacement was -8.6%.

On to `C/C(=C1/C(=O)N(c2nc3ccccc3s2)N=C1C(F)(F)F)N1CCC2CCCN2C1` (stereo not drawn), for which the displacement is -11.6%. In the case of `COc1ccccc1CC(=O)Nc1ccc(C)c(Cl)c1`, the displacement came out at 7%. In the case of `Cc1ccc(N=Cc2ccc(C)o2)c(O)c1`, the displacement was -10.4%. For the molecule `CCOC(=O)c1[nH]c(C)c(C(=O)CC(C)(C)C)c1C`, the displacement was -2.9%.

Take `COc1ccc2nc(NS(=O)(=O)c3ccc(Cl)cc3)c(Nc3ccc(NC(C)=O)cc3)nc2c1`: the displacement came out at 12.1%. Regarding `O=C(CSc1nnc(CCCN2C(=O)c3cccc4cccc(c34)C2=O)n1-c1ccccc1)NCc1ccccn1`, the displacement turned out to be 3.7%.

`Cc1ccc(N2CCN(CC(O)Cn3c4ccccc4c4ccccc43)CC2)cc1` (stereo not drawn): the displacement turned out to be 8.8%. For the molecule `C(=N\Nc1nc(N2CCOCC2)nc(N2CCOCC2)n1)/c1ccc2c(c1)OCO2`, the displacement amounted to 2.4%. Under `CCC(=O)Nc1sc2c(c1C(=O)Nc1cccc3ccccc13)CCCCC2` stands 8%. `Cc1nc2c([N+](=O)[O-])cc(Br)cc2c(=O)[nH]1`: the displacement is 30%. `COc1ccccc1NC(=O)c1ccc(C)o1`: the displacement was found to be 12.3%. For `Cc1ccc(-c2csc(NC(=O)c3ccc(Cl)cc3)n2)cc1`, the displacement amounted to 10.4%. Turning to `C=CCOc1ccc2c(C)c(CC)c(=O)oc2c1C`, the displacement is -14.5%. For `CC(C)(C)C1CCC(C(=O)N/N=C/c2cc([N+](=O)[O-])ccc2O)CC1` (stereo not drawn), the displacement amounted to 10.8%. On to `COc1ccc(/C=c2\sc3nc4c(C)c(C)ccc4n3c2=O)cc1`, for which the displacement was -1.4%. As to `C(=N\Nc1ncc(-c2cccs2)s1)/c1ccccc1`, the displacement was -7.2%. Regarding `CCc1ccc(N2CC(C(=O)N/N=C/c3ccc(C(=O)OC)cc3)CC2=O)cc1` (stereo not drawn), the displacement was -4.9%. `CCc1ccc(O)c(N=Cc2ccccc2O)c1`: the displacement is -2.1%. Under `Cc1ccc(C2C3=C(CC(C)(C)CC3=O)OC3=C2C(=O)CC(C)(C)C3)o1` stands 9.6%; under `CCOc1ccc(N(CC(=O)Nc2cccc(C(C)=O)c2)S(C)(=O)=O)cc1`, 5.2%. Consider `CCOc1ccc(C(=O)Nc2cccc3nsnc23)cc1Cl`, for which the displacement was 30.9%. Under `NC(=O)c1c(NC(=O)C23CC4CC(CC(C4)C2)C3)sc2c1CCCCCC2` stands -4%. As for `COC(=O)c1ccc(CSc2nnc(CCCN3C(=O)c4cccc5cccc(c45)C3=O)n2-c2ccccc2)cc1`, the displacement was -10.3%. As for `Cc1ccc2nc(SCCOc3ccccc3)[nH]c2c1`, the displacement was 0.6%. With `O=C(c1cccc(Br)c1)N1N=C(C(F)(F)F)CC1(O)c1ccc(Cl)cc1` (stereo not drawn), the displacement was 1.2%.

With `N#C/C(=C(/O)CO/N=C/c1ccccc1Cl)c1nc2ccccc2[nH]1`, the displacement was determined as 53.6%. Under `C\C(=N/N=C/C=C/c1ccco1)C1C(=O)c2ccccc2C1=O` stands 45.8%. For `CC1=C(C(=O)OC2CCCCC2)C(c2ccccc2[N+](=O)[O-])C2=C(CCCC2=O)N1` (stereo not drawn), the displacement was found to be 5.3%. Turning to `CN(Cc1ccccc1)Cc1c(O)ccc2c3c(c(=O)oc12)CCC3`, the displacement was -3.2%. As for `COC(=O)c1ccccc1NC(=O)COc1ccc(Cl)cc1C`, the displacement is -6%.

`Cc1cccc(OCC(=O)NCc2ccc(F)cc2)c1`: the displacement was -4.3%. `O=C(Nc1ccc2nn(-c3ccc(F)cc3)nc2c1)c1cccc(Br)c1`: the displacement is -6.3%. As to `CCOc1cc(/C=N/NC(=O)c2cc(-c3ccc4ccccc4c3)n[nH]2)ccc1O`, the displacement is -6.7%. `CC(C)(C)C1CCc2c(sc(NC(=O)c3ccc(Br)cc3)c2C(N)=O)C1` (stereo not drawn): the displacement was 2.8%. As to `O=C(c1ccccc1CCc1ccccc1)N1CCCc2ccccc21`, the displacement was determined as 3.9%. Consider `O=C1C(=Cc2cc(Br)ccc2OCc2ccccc2)C(=O)c2ccccc21`, for which the displacement worked out at 17.1%. Under `NC(=O)c1cccc(NC(=O)c2ccccc2I)c1` stands -4.6%; under `COc1cc(/C=C(/C#N)C(N)=O)cc(Br)c1O`, -72.2%. With `CC(c1ccccc1C(O)(c1ccccc1)C(F)(F)F)N(C)C` (stereo not drawn), the displacement is -3.1%. On to `COc1ccc(-c2noc(-c3ccc(C)c([N+](=O)[O-])c3)n2)cc1OC`, for which the displacement is 54.4%.

As for `Cc1ccc2c(c1)C1C=CCC1C(C(=O)O)N2` (stereo not drawn), the displacement is 142%. Under `COc1ccc(C(=O)N2CCN(C(=O)c3ccc(-c4ccccc4)cc3)CC2)cc1OC` stands -7%; under `COc1cc(NC(=O)c2cc3n(n2)C(C(F)(F)F)CC(c2ccccc2)N3)c(OC)cc1Cl` (stereo not drawn), 2.7%. With `CC(=O)c1ccc(N(C(C)=O)C2=C(NCCO)C(=O)c3ccccc3C2=O)cc1`, the displacement amounted to 9.9%. Consider `COc1ccc(C(=O)Nc2sc3c(c2C(=O)Nc2cccc4ccccc24)CCCC3)cc1OC`, for which the displacement was 2%. Consider `CCOc1ccc2c(c1)C(C)=CC(C)(C)N2C(=O)CN1C(=O)CCC1=O`, for which the displacement was 12.7%. For `O=C1C(=O)N(c2nc3ccccc3s2)C(c2ccccc2F)/C1=C(/O)c1ccccc1` (stereo not drawn), the displacement was found to be 6.1%.

Regarding `CN1CCN(NC(=O)c2ccc([N+](=O)[O-])cc2Cl)CC1`, the displacement amounted to 9.6%. As to `CCOc1ccc(NC(=O)c2cnn(-c3ccccc3)c2NC(=O)c2ccccc2F)cc1`, the displacement stood at 7.8%. As to `CC(C)c1ccc(/C=N/N=C2/NC(=O)C(Cc3ccccc3)S2)cc1` (stereo not drawn), the displacement is -0.3%. Under `O=C1CC(N2CCN(C/C=C/c3ccccc3)CC2)C(=O)N1c1ccc(Cl)c(Cl)c1` (stereo not drawn) stands -1.4%; under `O=C(NC(=S)Nc1ccccc1C#Cc1ccccc1)c1ccc(Br)cc1`, 22.3%; under `Cc1cc2c(cc1Br)NC(=O)C2=O`, -2.1%. In the case of `CC1(C)CC(NC(=O)c2ccccc2F)CC(C)(C)N1`, the displacement was -12.3%.

With `CCN(CC)c1ccc(NC(=O)/C=C/c2cc(OC)ccc2OC)cc1`, the displacement was determined as 12.7%. For the molecule `O=C1C=C(c2ccccc2)CC(c2ccccc2)C1n1nnc2ccccc21` (stereo not drawn), the displacement is -4.3%. For `CCCC1=NN2C(=N)/C(=C/c3cccc(OCc4ccccc4F)c3)C(=O)N=C2S1`, the displacement was 6%.

On to `Cc1c(-c2ccc(C=O)o2)ccc([N+](=O)[O-])c1C`, for which the displacement was 12.2%. As for `CN1CCN(Cc2c(O)ccc3c(=O)c(-c4ccccc4)coc23)CC1`, the displacement was -1.7%. Under `Cc1ccc(C(=O)NCc2ccc(Cl)c(Cl)c2)o1` stands -5.6%. Under `COc1cccc(C(=O)Nc2ccccc2CO)c1` stands 4.5%. Under `Cc1ccc(C(=O)Nc2sc3c(c2C(=O)N2CCCCCC2)CCCC3)cc1` stands 2%; under `CSc1nc2[nH]c3c(c2c2nnnn12)CCCC3`, 1.7%; under `O=[N+]([O-])c1ccc(C=Nc2ccc(Br)c(Cl)c2)s1`, -0.3%.

As for `O=C(Nc1ccc(F)cc1)c1cc([N+](=O)[O-])ccc1Br`, the displacement is 13.3%. Under `COc1cc(N=Cc2c(O)n(-c3ccccc3F)c(=O)[nH]c2=O)cc(OC)c1OC` stands 3.1%. For the molecule `Cc1c(C(c2ccco2)c2c(C)n(C)n(-c3ccccc3)c2=O)c(=O)n(-c2ccccc2)n1C`, the displacement was -5.3%. For `COc1ccccc1/C=C1\SC(=S)N(NC(=O)Cc2ccccc2)C1=O`, the displacement is -3.8%.

Regarding `CCCCOc1ccc(S(=O)(=O)N(CC)CC)cc1`, the displacement turned out to be 10.6%. On to `Cc1cc(Cl)ccc1OC(=O)c1cc2ccccc2o1`, for which the displacement is -0.5%. Consider `COC(=O)c1cc(NC(=O)C(Sc2ccccc2)c2ccccc2)cc(C(=O)OC)c1` (stereo not drawn), for which the displacement was -7.9%.

`COCCNC(=O)CN(c1cccc(Br)c1)S(=O)(=O)c1ccccc1`: the displacement is 3.9%. Turning to `CN1C(=O)NC(=O)/C(=C\c2ccc(Cl)cc2Cl)C1=O`, the displacement was 3.8%. Regarding `Nc1ccc(O)c(-c2nc3ccc(N)cc3[nH]2)c1`, the displacement stood at 25.4%.

On to `Cc1cc(Br)c2c(c1)c(N=NC(N)=O)c(O)n2C`, for which the displacement was found to be 4.9%.

Take `O=C(Nc1cccc(Cl)c1Cl)c1cc(-c2cccs2)nc2ccccc12`: the displacement came out at 6.4%.
